Experimental findings from the supplement of paper PMC10126150 are described below.

Sequences with one replicate were seen in a single cluster, so their values are uncertain.

For the data set, the system named is ATP. Kind of data set: switch fluorescence ratio, 500 uM ATP over buffer (Cy3 cluster intensity, sum of 5 cycles each) (fold (ratio)); higher = stronger signal-on switching upon ATP binding; sequences stand for … in TCGTCGGCAGCGTCAGATGTGTATAAGAGACAGTTTTTTTTTTTTTTTTTTTTTTTTT…TC. The note with it: aptamer strand: ATP DNA aptamer (quencher-CACCTGGGGGAGTATTGCGGAGGAAGG + anchor), 100 nM annealed; ATP concentration: 500 uM; one replicate. The essentials: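 Five buffer/ATP imaging cycles were run on Cy3-labelled switching-strand clusters on a modified Illumina MiSeq flow-cell, with NaOH stripping and re-annealing between cycles. In each cycle, clusters annealed to 100 nM quencher-labelled ATP aptamer were imaged in selection buffer, then after 15 min with 500 uM ATP at 22 °C. Per cluster, the fluorescence ratio is summed target-cycle over summed buffer-cycle Cy3 intensity, averaged per switch-domain sequence. Only clusters within 100-1000 RFU were kept.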
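Note: ATP exposure 15 min at 22 °C before imaging.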

Turning to GCGTTTGTCT, the switch fluorescence ratio came out at 1.02. As to TCCATCGTTT, the switch fluorescence ratio worked out at 1.1. For TGATCCGTAA, the switch fluorescence ratio was found to be 2.91. With AATGAGCCGC, the switch fluorescence ratio came out at 1.03. For the sequence GGACTTGGAT, the switch fluorescence ratio turned out to be 0.974. To CTTTCCGACT belongs 1.24. To CTCTACATGG belongs 1.09; to ATACGGTGAA, 1.01; to GGTTGAGGAT, 0.958.

For the sequence GTAGATCGCG, the switch fluorescence ratio was found to be 1.03. The same measure for AGTCAACGCT: 0.96. Turning to AGTCACGTCT, the switch fluorescence ratio was determined as 1.04. For TTCTTATGCC, the switch fluorescence ratio was 0.978.

With GCAAGTAAGC, the switch fluorescence ratio was determined as 1.09. As to CTGTGAAACA, the switch fluorescence ratio is 1.02. For TGAATGAGTC, the switch fluorescence ratio worked out at 0.996. Regarding TTGCCCTTTG, the switch fluorescence ratio stood at 0.999. For the sequence TTTTGCGTG, the switch fluorescence ratio came out at 0.992. AAGAGTGACC: the switch fluorescence ratio came out at 1.03. Turning to ACTGACTGCA, the switch fluorescence ratio turned out to be 1.34.

As to TCACTTGCG, the switch fluorescence ratio was 0.966. To AGAACTTACG belongs 1.21; to AGGCAGAGAT, 0.979; to GCAGTAGCGT, 0.964.

Regarding AACACCAAGC, the switch fluorescence ratio is 1.

AGCCCCGGGA: the switch fluorescence ratio worked out at 0.959.

Regarding TTTCTTAAAT, the switch fluorescence ratio was 1.01. To ATCTCGGCGA belongs 1.25; to ATGCAGGTTC, 1.03. As for ATTCTCTCAG, the switch fluorescence ratio amounted to 0.975. With CGCCAAACAT, the switch fluorescence ratio is 0.985. The same measure for TTTAGTCATA: 1.02; for AAATGAAGTG: 1.04.

GAACCTTCGC: the switch fluorescence ratio stood at 3.33. Take TTCCGAGTTG: the switch fluorescence ratio came to 1.07.

As to GGCAGGGTCA, the switch fluorescence ratio came to 0.959. As to ACTACTCAAT, the switch fluorescence ratio worked out at 2.55.

In the case of AAGTCCT, the switch fluorescence ratio was 0.999. For the sequence TCGGCGCCTG, the switch fluorescence ratio was determined as 0.987. As for ATCATGATAA, the switch fluorescence ratio was 1.02. GGTACGAGCG: the switch fluorescence ratio was 0.977. For ACTATTGAGT, the switch fluorescence ratio came out at 1.02.

As to CTATGAAGAT, the switch fluorescence ratio came to 0.993. To AGATCGACTT belongs 1.03; to ATAATCCACC, 1.06.

For AAGAATCTCA, the switch fluorescence ratio came out at 0.995. The same measure for CCAGGGTCCA: 1.07; for TTCCTTATTC: 1.4. With GCGAAAAAA, the switch fluorescence ratio was determined as 1.07.

For GGTTAGGAGC, the switch fluorescence ratio is 0.949.

As for CTTACCGGAA, the switch fluorescence ratio came to 1.34. As to TACACACGTT, the switch fluorescence ratio is 1.4. Regarding CGGAAATCAC, the switch fluorescence ratio worked out at 1.08. The same measure for CGCACCTAGC: 1.19; for GCGGTTTGGT: 0.953; for TAAATGGATT: 0.945. For the sequence CCGGCGTAGC, the switch fluorescence ratio is 1.01. Turning to ATATTATGG, the switch fluorescence ratio was determined as 0.973. As to AATGGTGTTA, the switch fluorescence ratio came out at 1.04. The same measure for GTCGTAATTC: 1.18. To TTACTAGGTT belongs 0.983; to TGCAGACCGT, 1. Take CGCGCTCTAT: the switch fluorescence ratio is 1.11.

TATGCAGTTC: the switch fluorescence ratio stood at 1.12. For ACTTGATGAG, the switch fluorescence ratio was determined as 1.02.

Take CAGTGGCGGC: the switch fluorescence ratio was 0.951.

Take TGTTCCGGAA: the switch fluorescence ratio turned out to be 1.09. With TGGTATTTCA, the switch fluorescence ratio is 0.992.

For the sequence GAGTAGGTGG, the switch fluorescence ratio is 0.996. With GCCCAATGAG, the switch fluorescence ratio was 1.01. GAATGGAGGA: the switch fluorescence ratio turned out to be 1.01. The same measure for ATTCATCCTC: 1.05; for CCCTGATGAG: 0.992. For AAACACGGGA, the switch fluorescence ratio worked out at 1.06. Consider GACTTCTGGC, for which the switch fluorescence ratio stood at 0.957. As for ATAGGGGGG, the switch fluorescence ratio came out at 1.03. Turning to AAGATAATCT, the switch fluorescence ratio was 0.99.

Turning to GCAAATTTTG, the switch fluorescence ratio worked out at 1. On to CCATGAGAGA, for which the switch fluorescence ratio is 1.

Take GCGCCTTCGA: the switch fluorescence ratio came out at 1.06.

Regarding TTTGTTTATT, the switch fluorescence ratio was 1.02. In the case of GGAGTGAGCT, the switch fluorescence ratio was 1.03. As for CTTATTTCGG, the switch fluorescence ratio amounted to 1.05. The same measure for TGGATTGTGG: 0.986.

GCAGTAGTAA: the switch fluorescence ratio came out at 1.05. The same measure for TCGGTTTTGA: 0.991; for AAGCGCTTCT: 1.03; for CATAGTGGAT: 1.02.

Consider TCACTAATCG, for which the switch fluorescence ratio turned out to be 1.05. Consider ATGCACGGTT, for which the switch fluorescence ratio came to 1.09. Regarding AGCATCATGT, the switch fluorescence ratio amounted to 1.03. Regarding TGACTACATC, the switch fluorescence ratio amounted to 1.09.

With AGAAACTGGG, the switch fluorescence ratio is 0.979. Take ACACAACATA: the switch fluorescence ratio was 1.12. Take ACGTTGCGAT: the switch fluorescence ratio was determined as 1.09. Consider TTAGTACGCC, for which the switch fluorescence ratio was determined as 1.01. For GGTAAAGCTT, the switch fluorescence ratio came to 1.01. For AAATTGCG, the switch fluorescence ratio was 1.02.

As to AACGACAGCG, the switch fluorescence ratio amounted to 0.953. Regarding AATCCCCAA, the switch fluorescence ratio was found to be 1.09. To GAATTTGGCC belongs 1.01. For ATAAAGGAGG, the switch fluorescence ratio was found to be 0.978. Turning to GCCAGCGTTA, the switch fluorescence ratio stood at 1.08. Take GGGAACATAG: the switch fluorescence ratio was determined as 1.03. Consider AGGACAAGCT, for which the switch fluorescence ratio was 0.999.

On to TCTGTTAAAT, for which the switch fluorescence ratio was 1. GGGAGAATCA: the switch fluorescence ratio was determined as 0.956. The same measure for TCATTGCGTT: 0.955; for GGGGCCAAGC: 1.03. In the case of GGGGAGTCTA, the switch fluorescence ratio worked out at 0.967.

CTGTCGTACG: the switch fluorescence ratio was 0.976. Consider TTCGTCCGAT, for which the switch fluorescence ratio was 1.21. To ACAACCGGCA belongs 1.06; to CCGGTTCACG, 1.02; to TCTAAAGAGA, 0.997.

On to GTGAAGTTAT, for which the switch fluorescence ratio was 0.998. For ACTGCGACCC, the switch fluorescence ratio came to 1.26. To ATAAACGACG belongs 0.98; to CTTGATGTGC, 1.02. For the sequence CGAGCGGTCT, the switch fluorescence ratio was 1.08.
